# The other results are listed elsewhere or left out.
# What was measured:
# Assay in all cases: glycan array binding signal (z-score within array); higher = stronger binding
# Details in all cases: glycan notation: IUPAC condensed, linker removed
# [1] = target: Fuc(a1-2)Gal(b1-4)GlcNAc(b1-3)Gal(b1-4)GlcNAc
# Method in brief: (§1)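 The binding signal is a Z-score computed within each array. Data were drawn from 3228 arrays in the Consortium for Functional Glycomics database, restricted to those with a known protein sequence. Scores were averaged over arrays of the same protein sequence at different concentrations or buffers, and over linkers, and negative values can be taken as non-binding.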
# [2] = target: Fuc(a1-2)Gal(b1-4)GlcNAc(b1-3)Gal(b1-4)GlcNAc(b1-2)Man(a1-3)[Fuc(a1-2)Gal(b1-4)GlcNAc(b1-3)Gal(b1-4)GlcNAc(b1-2)Man(a1-6)]Man(b1-4)GlcNAc(b1-4)GlcNAc
# Method in brief: as §1
# [3] = target: Fuc(a1-2)Gal(b1-4)GlcNAc(b1-3)Gal(b1-4)GlcNAc(b1-3)Gal(b1-4)GlcNAc
# Method in brief: as §1
# [4] = target: Fuc(a1-2)Gal(b1-4)GlcNAc(b1-3)GalNAc
# Method in brief: as §1
# [5] = target: Fuc(a1-2)Gal(b1-4)GlcNAc(b1-3)[Fuc(a1-2)Gal(b1-4)GlcNAc(b1-6)]GalNAc
# Method in brief: as §1
# [6] = target: Fuc(a1-2)Gal(b1-4)GlcNAc(b1-3)[Fuc(a1-3)[Gal(b1-4)]GlcNAc(b1-6)]Gal(b1-4)Glc
# Method in brief: as §1
# [7] = target: Fuc(a1-2)Gal(b1-4)GlcNAc(b1-6)GalNAc
# Method in brief: as §1
# [8] = target: Fuc(a1-2)Gal(b1-4)GlcNAc6S
# Method in brief: as §1
# [9] = target: Fuc(a1-2)Gal(b1-4)[Fuc(a1-3)]GalNAc(b1-3)Gal(b1-4)[Fuc(a1-3)]GlcNAc
# Method in brief: as §1
# [10] = target: Fuc(a1-2)Gal(b1-4)[Fuc(a1-3)]GalNAc(b1-3)Gal(b1-4)[Fuc(a1-3)]GlcNAc(b1-3)Gal(b1-4)[Fuc(a1-3)]GalNAc
# Method in brief: as §1
# [11] = target: Fuc(a1-2)Gal(b1-4)[Fuc(a1-3)]GlcNAc
# Method in brief: as §1
# [12] = target: Fuc(a1-2)Gal(b1-4)[Fuc(a1-3)]GlcNAc(b1-2)Man(a1-3)[Fuc(a1-2)Gal(b1-4)[Fuc(a1-3)]GlcNAc(b1-2)Man(a1-6)]Man(b1-4)GlcNAc(b1-4)[Fuc(a1-6)]GlcNAc
# Method in brief: as §1
# [13] = target: Fuc(a1-2)Gal(b1-4)[Fuc(a1-3)]GlcNAc(b1-2)[Fuc(a1-2)Gal(b1-4)[Fuc(a1-3)]GlcNAc(b1-4)]Man(a1-3)[Fuc(a1-2)Gal(b1-4)[Fuc(a1-3)]GlcNAc(b1-2)Man(a1-6)]Man(b1-4)GlcNAc(b1-4)GlcNAc
# Method in brief: as §1
# [14] = target: Fuc(a1-2)Gal(b1-4)[Fuc(a1-3)]GlcNAc(b1-3)Gal(b1-4)[Fuc(a1-3)]GlcNAc
# Method in brief: as §1
# [15] = target: Fuc(a1-2)Gal(b1-4)[Fuc(a1-3)]GlcNAc(b1-3)Gal(b1-4)[Fuc(a1-3)]GlcNAc(b1-3)Gal(b1-4)[Fuc(a1-3)]GlcNAc
# Method in brief: as §1
# [16] = target: Fuc(a1-2)Gal(b1-4)[Fuc(a1-3)]GlcNAc(b1-3)GalNAc
# Method in brief: as §1
# [17] = target: Fuc(a1-2)Gal(b1-4)[Fuc(a1-3)]GlcNAc(b1-3)[Neu5Ac(a2-6)Gal(b1-4)GlcNAc(b1-6)]Gal(b1-4)Glc
# Method in brief: as §1
# [18] = target: Fuc(a1-2)Gal3S(b1-4)GlcNAc
# Method in brief: as §1
# [19] = target: Fuc(a1-2)Gal6S(b1-3)GlcNAc
# Method in brief: as §1
# [20] = target: Fuc(a1-2)Gal6S(b1-3)GlcNAc6S
# Method in brief: as §1
# Fuc(a1-2)Gal6S(b1-4)Glc = target: Fuc(a1-2)Gal6S(b1-4)Glc
# Method in brief: as §1
# [21] = target: Fuc(a1-2)Gal6S(b1-4)Glc6S
# Method in brief: as §1
# [22] = target: Fuc(a1-2)Gal6S(b1-4)GlcNAc
# Method in brief: as §1
# Fuc(a1-2)GlcNAc = target: Fuc(a1-2)GlcNAc
# Method in brief: as §1
# Fuc(a1-2)[Gal(a1-3)]Gal = target: Fuc(a1-2)[Gal(a1-3)]Gal
# Method in brief: as §1
# [23] = target: Fuc(a1-2)[Gal(a1-3)]Gal(b1-3)GalNAc
# Method in brief: as §1
# [24] = target: Fuc(a1-2)[Gal(a1-3)]Gal(b1-3)GalNAc(b1-3)Gal(a1-4)Gal(b1-4)Glc
# Method in brief: as §1
# [25] = target: Fuc(a1-2)[Gal(a1-3)]Gal(b1-3)GlcNAc
# Method in brief: as §1
# [26] = target: Fuc(a1-2)[Gal(a1-3)]Gal(b1-3)GlcNAc(b1-2)Man(a1-3)[Fuc(a1-2)[Gal(a1-3)]Gal(b1-3)GlcNAc(b1-2)Man(a1-6)]Man(b1-4)GlcNAc(b1-4)GlcNAc
# Method in brief: as §1
# [27] = target: Fuc(a1-2)[Gal(a1-3)]Gal(b1-3)GlcNAc(b1-2)Man(a1-3)[Fuc(a1-2)[Gal(a1-3)]Gal(b1-3)GlcNAc(b1-2)Man(a1-6)]Man(b1-4)GlcNAc(b1-4)[Fuc(a1-6)]GlcNAc
# Method in brief: as §1
binder,measurement,setting,value
Epa15 (Candida glabrata) (protein) MGSSHHHHHHSSGLVPRGSHMASDPTTFPLGCSPEFTKTKKGLSMELYRYDYLPPGSYPCWDSAYLNPSYPRTGYKAKKLIATVDGVSGDINFKFNPKFGCKAIPDYLPSNFNYHEPITITNFTMILYGYFMPKTTAFHTFYVTADDLLFMNFGAGNAFDCCRREETADKFGNYAAYSVWGKKSLKNELTVYLHTGVYYPIRLFYNNRDYIAQLDIRFKTEHSNAIITNFTDYFYSVDDSSLGCPGLI,glycan array binding signal (z-score),[1],-0.547
same,glycan array binding signal (z-score),[2],-0.322
same,glycan array binding signal (z-score),[3],-0.205
same,glycan array binding signal (z-score),[4],-0.4
same,glycan array binding signal (z-score),[5],0.374
same,glycan array binding signal (z-score),[6],-0.321
same,glycan array binding signal (z-score),[7],0.159
same,glycan array binding signal (z-score),[8],-0.4
same,glycan array binding signal (z-score),[9],-0.284
same,glycan array binding signal (z-score),[10],-0.281
same,glycan array binding signal (z-score),[11],-0.361
same,glycan array binding signal (z-score),[12],0.04
same,glycan array binding signal (z-score),[13],0.306
same,glycan array binding signal (z-score),[14],-0.428
same,glycan array binding signal (z-score),[15],-0.446
same,glycan array binding signal (z-score),[16],1.59
same,glycan array binding signal (z-score),[17],-0.092
same,glycan array binding signal (z-score),[18],-0.532
same,glycan array binding signal (z-score),[19],-0.251
same,glycan array binding signal (z-score),[20],0.063
same,glycan array binding signal (z-score),Fuc(a1-2)Gal6S(b1-4)Glc,-0.434
same,glycan array binding signal (z-score),[21],-0.401
same,glycan array binding signal (z-score),[22],-0.285
same,glycan array binding signal (z-score),Fuc(a1-2)GlcNAc,-0.263
same,glycan array binding signal (z-score),Fuc(a1-2)[Gal(a1-3)]Gal,-0.319
same,glycan array binding signal (z-score),[23],-0.127
same,glycan array binding signal (z-score),[24],-0.503
same,glycan array binding signal (z-score),[25],-0.451
same,glycan array binding signal (z-score),[26],-0.239
same,glycan array binding signal (z-score),[27],0.153
